Measurements as given in PubChem BioAssay AID2147 (National Center for Advancing Translational Sciences (NCATS), 2009).
Several values for one entry are separate records, joined by “and”; a condition that tells them apart may be missing. Equal values may be shown once. Out of some 230,000 compounds screened, about 3,600 (1.6%) were called active. Inconclusive results, whose numbers are uncertain, are shown with a selection of clear calls. The call rests on the fitted dose curve; in most records, active means well fitted inhibition curve with a large enough effect (not every such curve was filed as active); inconclusive means small, poorly fitted or top-dose-only effect, or another doubt; inactive means no such curve, though single readings can be large or run the other way. A potency beside an inconclusive call is a rough fit, not a confirmed value.

Each compound was assayed against Lysine-specific demethylase 4E (Homo sapiens) (UniProt B2RXH2) (assay: qHTS Assay for Inhibitors of Human Jumonji Domain Containing 2E (JMJD2E)). Settings: JMJD2E catalytic domain, FDH-coupled NADH fluorescence (FDH is formaldehyde dehydrogenase); series mostly up to 57.1 µM; activity change, negative = inhibition: at the top concentration.
UniProt B2RXH2, sequence (B2RXH2 whole entry, looked up, the tested form may be a part): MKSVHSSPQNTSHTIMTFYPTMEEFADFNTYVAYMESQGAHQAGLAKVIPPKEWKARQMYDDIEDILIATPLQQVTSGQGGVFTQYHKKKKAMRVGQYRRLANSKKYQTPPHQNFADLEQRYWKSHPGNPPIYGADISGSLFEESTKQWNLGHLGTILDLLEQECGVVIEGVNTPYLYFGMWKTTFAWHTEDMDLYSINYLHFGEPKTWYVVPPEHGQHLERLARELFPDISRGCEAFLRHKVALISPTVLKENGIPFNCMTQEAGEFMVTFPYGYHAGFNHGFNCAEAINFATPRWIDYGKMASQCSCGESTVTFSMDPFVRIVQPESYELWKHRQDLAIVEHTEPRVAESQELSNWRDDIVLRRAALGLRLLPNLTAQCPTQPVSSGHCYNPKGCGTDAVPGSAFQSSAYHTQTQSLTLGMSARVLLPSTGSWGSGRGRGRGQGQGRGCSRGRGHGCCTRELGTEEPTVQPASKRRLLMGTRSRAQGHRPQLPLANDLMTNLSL
Further: nearly all actives have a fitted effect of over 50% in size.
Potency means the concentration at half of the fitted maximal effect; tags describe the fitted curve by direction and shape.
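Wherever activity change, negative = inhibition is given: 0% = wells with enzyme and -100% = buffer wells without enzyme.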

Compound | Potency | activity change, negative = inhibition
N#Cc1nc(-c2ccc(Cl)cc2)oc1NCc1ccco1 | inconclusive: 28.2 µM [inhibitor, partial curve] | –
Cc1ccc(S(=O)(=O)Nc2cccc3ncccc23)s1 | – | inactive: 6.17%
COc1cccc2c(=O)c3ccoc3n(C)c12 | inconclusive: 31.6 µM [inhibitor, partial curve] and inconclusive: 28.2 µM [inhibitor, partial curve] | –
COC(=O)c1ccccc1NC=C1C(=O)OC2(CCCCC2)OC1=O | inconclusive: 12.6 µM [inhibitor, partial curve] | –
Cc1ccc(COC(=O)CCc2nc3ccccc3c(=O)[nH]2)cc1 | inconclusive: 39.8 µM [inhibitor, single point] | –
CCCCS(=O)(=O)Nc1ccc2ncn(C)c(=O)c2c1 | inconclusive: 28.2 µM [inhibitor, partial curve] | –
NC(=O)c1c(NC(=O)c2ccco2)sc2c1CCC2 | – | inactive: -16.9%
CC(=O)N(Cc1ccc(F)cc1)c1cccc(C)c1C | – | inactive: -4.52%
CCOC(=O)C1CCN(C(=O)c2ccccc2N(C)S(C)(=O)=O)CC1 | – | inactive: -4.37%
COc1cccc(OC)c1C(=O)N1CCOCC1 | – | inactive: 0.302%
CCOc1ccccc1N=C1NC(=O)CS1 | – | inactive: 2.61%
COc1ccccc1CNC(=S)NCCc1ccccc1 | – | inactive: 4.48%
Cc1cccc(C2N(c3nccs3)C(=O)C3CCCN32)c1 (stereo not given) | inconclusive: 31.6 µM [inhibitor, single point] | –
O=C(Nc1cccc2nsnc12)c1cccs1 | inconclusive: 31.6 µM [inhibitor, partial curve] | –
O=C(O)c1ccc(CN(c2ccccn2)S(=O)(=O)c2ccccc2)cc1 | inconclusive: 31.6 µM [inhibitor, partial curve] | –
COc1cc(OC)c2ccc(=O)oc2c1C(CCN1CCN(c2ccccc2)CC1)c1ccc(N(C)C)cc1 (stereo not given) | inconclusive: 28.2 µM [inhibitor, single point] | –
Cc1onc(-c2ccccc2Cl)c1C(=O)Nc1cccc2nsnc12 | inconclusive: 4.47 µM [inhibitor, single point] | –
CN1CCc2nc(SCc3ccc(C(C)(C)C)cc3)c(C#N)cc2C1 | inconclusive: 39.8 µM [inhibitor, single point] | –
COc1cccc2cc(-c3nc4ccccc4o3)c(=O)oc12 | inconclusive: 31.6 µM [inhibitor, single point] | –
Cc1cc(C(=O)Nc2sc(C)c(C)c2C#N)c(C)o1 | inconclusive: 25.1 µM [inhibitor, single point] | –
COc1cc2cc(Oc3ccc4ccc(=O)oc4c3)c(=O)oc2cc1OC1OC(COC(=O)CC(C)(O)CC(=O)O)C(O)C(O)C1O (stereo not given) | inconclusive: 31.6 µM [inhibitor, partial curve] | –
c1cnc2c(OCc3cn4cccnc4n3)cccc2c1 | inconclusive: 10 µM [inhibitor, partial curve] | –
CCN(CC)CCN(C(=O)c1ccc2c(c1)CCCC2)c1nc2ccc(F)cc2s1 | – | inactive: -3.35%
O=C(c1cccc2ccccc12)C1CCCN(C(=O)CCCn2cncn2)C1 (stereo not given) | inconclusive: 35.5 µM [inhibitor, single point] | –

Compound | Potency | activity change, negative = inhibition
COC(=O)c1cc(CSC(=N)N)ccc1OCCC(C)C | inconclusive: 28.2 µM [inhibitor, single point] | –
CCOC(=O)c1sc(NC(=O)c2cc(-c3ccccc3)nc3ccccc23)c(C#N)c1C | – | inactive: -7.87%
COc1ccc(-n2nc(C(=O)NCC(=O)N3CCN(c4ccccn4)CC3)c3ccccc3c2=O)cc1Cl | inconclusive: 35.5 µM [inhibitor, single point] | –
O=C(Nc1nc2ccc(S(=O)(=O)N3CCCC3)cc2s1)c1ccccn1 | inconclusive: 39.8 µM [inhibitor, single point] | –
O=C(CC1Nc2ccccc2NC1=O)NCC1COc2ccccc2O1 (stereo not given) | inconclusive: 35.5 µM [inhibitor, single point] | –
CC1CN(CCCCOc2ccc(C(C)C)cc2)CC(C)O1 (stereo not given) | inconclusive: 39.8 µM [inhibitor, single point] | –
CCOC(=O)N1CCN(C(=O)c2ccc3c(c2)N(CC)CCS3)CC1 | inconclusive: 31.6 µM [inhibitor, partial curve] | –
COc1cc(O)c2c(c1)OC(c1ccc(O)cc1)CC2=O (stereo not given) | – | inactive: 10.9%
CCCn1c2ccccc2c2nnc(SCc3[nH]c(=O)[nH]c3C(=O)CCCCC(=O)OCC)nc21 | – | inactive: -16.8%
Brc1cc2[nH]cnc2c2ccccc12 | – | inactive: -8.93%
Cc1ccccc1/C=N/Nc1ccnc2cc(Cl)ccc12 | inconclusive: 31.6 µM [inhibitor, single point] | –
Cc1cccc(C(=O)N[C@H](C(=O)OCc2cc(=O)n3c(n2)sc2ccccc23)C(C)C)c1 | inconclusive: 31.6 µM [inhibitor, single point] | –
CCOC(=O)C1(CCCc2ccccc2)CCN(C(=O)c2cc(C)nc(C)n2)CC1 | – | inactive: 0.428%
CCCc1cc(=O)n2[nH]c(-c3ccco3)nc2n1 | inconclusive: 35.5 µM [inhibitor, single point] | –
C#CCOCCOCCOCCNc1nc(N2CCN(C(=O)[C@H](CCC(=O)O)n3cc(C(N)Cc4ccc(O)cc4)nn3)CC2)nc(N2CCN(C(=O)[C@H](Cc3cc4ccccc4[nH]3)n3cc(C(N)CC(C)C)nn3)CC2)n1 (stereo not given in full) | – | inactive: -6.78%
Cc1ccc(-c2ccc(C(=O)NCc3ccccc3)o2)c2ccccc12 | inconclusive: 31.6 µM [inhibitor, partial curve] | –
C/C(N)=C(/C#N)C(=O)COC(=O)CNS(=O)(=O)c1c(F)cccc1F | inconclusive: 7.08 µM [inhibitor, single point] | –
O=C(Nc1ccsc1C(=O)NC1CCCCC1)c1ccc(F)cc1 | inconclusive: 39.8 µM [inhibitor, single point] | –
COc1ccc(-c2nc(Cn3c(SCc4ccccc4F)nc4ccncc43)c(C)o2)cc1 | – | inactive: -14.6%
CCN1CCN(CCNC(=O)c2ccc(/C=C3\Sc4ccccc4N(Cc4ccccc4F)C3=O)cc2)CC1 | inconclusive: 7.08 µM [inhibitor, single point] | –
O=c1c2cc(NC(=S)N3CCCCCC3)ccc2nc2n1CCCCC2 | inconclusive: 39.8 µM [inhibitor, single point] | –
COC(=O)c1ccc(C2=NOC(C)(c3sc(-c4ccc(Cl)cc4)nc3C)C2)cc1 (stereo not given) | inconclusive: 31.6 µM [inhibitor, single point] | –
CN(c1ccc(O)cc1)c1nc(-c2ccccc2)cs1 | – | inactive: -16.6%
CN1CCN(CC(O)COc2ccc(OCC(O)CN3CCN(C)CC3)cc2)CC1 (stereo not given) | inconclusive: 39.8 µM [inhibitor, single point] | –

Compound | Potency | activity change, negative = inhibition
CC12CN3CCN(CC(C3)/C1=N\NC(=O)c1ccccc1N)C2 | inconclusive: 35.5 µM [inhibitor, partial curve] | –
CCNc1nc(N)nc(Oc2ccc(OCCOc3ccc(Cl)cc3Cl)nn2)n1 | – | inactive: 2.02%
O=C(C1=C[C@@H]2[C@H]3C(=O)N(c4ccccc4Cl)C(=O)[C@H]3[C@@H](C(=O)c3ccc(Cl)cc3)N2C=C1)c1ccccc1 | inconclusive: 20 µM [inhibitor, partial curve] | –
CC(=O)N1CCN(c2nc(CC(C)C)c3c(c2C#N)CCC3)CC1 | inconclusive: 28.2 µM [inhibitor, partial curve] | –
Cc1cccc(-n2c(C)cc(/C=C3\C(=N)N4N=C(CC(C)C)SC4=NC3=O)c2C)c1 | inconclusive: 7.08 µM [inhibitor, single point] | –
COc1ccc(/C=C/C(=O)NC(CCSC)C(=O)O)cc1 (stereo not given) | – | inactive: -5.58%
O=C(NCc1ccc(Cl)cc1)c1cc([N+](=O)[O-])ccc1Cl | – | inactive: 9.51%
Cc1nn(C)c2ncc(C(N)=O)c(Oc3ccc(Cl)cc3)c12 | inconclusive: 39.8 µM [inhibitor, single point] | –
O=C(CSC1=Nc2ccccc2C2=NC(CC(=O)NCc3ccco3)C(=O)N12)NCC1CCCO1 (stereo not given) | inconclusive: 28.2 µM [inhibitor, partial curve] | –
CCN(CC)c1ccc(N=Cc2ccccc2[N+](=O)[O-])cc1 | active: 5.01 µM | –
COc1cc(CCC(=O)N2CCN(c3ncccn3)CC2)cc(OC)c1OC | inconclusive: 28.2 µM [inhibitor, single point] | –
O=C(O)CCN1C(=O)C(=C2CCCCCC2)SC1=S | inconclusive: 39.8 µM [inhibitor, single point] | –
N#Cc1ccc2ccn(CC(=O)NC3CCCCC3)c2c1 | inconclusive: 25.1 µM [inhibitor, partial curve] | –
COc1cccc2c1OCC/C2=N\NC(=O)C(C)Oc1ccc([N+](=O)[O-])cc1 (stereo not given) | – | inactive: -21.7%
Cc1ccc(C(=O)C(NC(=O)c2ccco2)Nc2sc3c(c2C(N)=O)CCCC3)cc1 (stereo not given) | inconclusive: 20 µM [inhibitor, single point] | –
Cc1cccc(NC2=C(NCCO)C(=O)c3ccccc3C2=O)c1 | inconclusive: 39.8 µM [inhibitor, single point] | –
Cc1ccc(C(=O)NC(=S)NNC(=O)COc2ccccc2C)cc1 | – | inactive: 16.8%
CN1C(=O)N(C)c2ccc(C=O)c3cccc1c23 | inconclusive: 28.2 µM [inhibitor, partial curve] | –
CCc1nc(NC2CCCCC2)c(C#N)c2c1COC(C)(C)C2 | inconclusive: 31.6 µM [inhibitor, partial curve] | –
COC(=O)[C@H](Cc1c[nH]c2ccccc12)NC(=O)Nc1ccccc1OC | – | inactive: -6.13%
CCOC(=O)c1ccc(-n2c(C)nc3c(cnn3-c3ccccc3Cl)c2=O)cc1 | – | inactive: 7.39%
CCOC(=O)C(CCc1ccccc1)NC(C)C(=O)N1CCCC1C(=O)O (stereo not given) | – | inactive: -29.2%
